# About 800 (1.6%) of roughly 50,000 compounds showed an effect of 50% or more. The list shows a part of the results.
# Biological target: Bcl-2-like protein 10 (Homo sapiens) (UniProt Q9HD36)
# Experiment: TR3 peptide-Bcl-B binding displacers, biochemical primary FP assay, phenotype converters (AID 1240);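 also: 0% = Bcl-B with tracer peptide and DMSO and 100% = tracer peptide lacking Bcl-B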
# Settings: GST-Bcl-B / FITC-TR3 peptide fluorescence polarization; stronger effect = higher value; compound at 3.75 mg/L
# Chain of UniProt Q9HD36 (Q9HD36 whole entry, looked up): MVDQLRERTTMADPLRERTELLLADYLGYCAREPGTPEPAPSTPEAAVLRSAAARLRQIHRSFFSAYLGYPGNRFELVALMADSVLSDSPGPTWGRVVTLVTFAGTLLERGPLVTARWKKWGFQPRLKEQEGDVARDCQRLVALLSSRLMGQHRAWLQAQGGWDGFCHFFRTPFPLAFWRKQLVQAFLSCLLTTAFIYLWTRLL
row,SMILES,displacement
1,O=C(/C=C/c1ccccc1)NC(=S)Nc1ccc(F)cc1,2.7%
2,Cc1ccc2[nH]c(=O)c(C(=O)/C=C/c3ccccc3Cl)c(-c3ccccc3)c2c1,21.3%
3,COc1ccc(CC(=O)N2CCN(c3ccccn3)CC2)cc1OC,29%
4,CSC1=C(C#N)C(c2ccccc2)C=C(c2ccccc2)N1 (stereo not drawn),13.5%
5,Cc1onc(-c2c(Cl)cccc2Cl)c1C(=O)n1c(C)nc2ccccc21,-4.2%
6,O=C1CC(c2ccc(Cl)cc2)CN1C(=O)Nc1ccccc1 (stereo not drawn),4.8%
7,CCCOc1ccc(/C=C2\SC(=S)N(NC(=O)c3ccccc3Cl)C2=O)cc1OC,41.4%
8,CCc1ccccc1NC(=O)c1c(NC(=O)c2cccs2)sc2c1CCCC2,-9.2%
9,Cc1ccc2c(c1)C(C)CC(C)(C)N2C(=O)Nc1ccccc1 (stereo not drawn),-0.4%
10,Cc1nn(C2CCCCC2)c(N)c1-c1ccccc1,-10.1%
11,Cc1ccccc1/C=C(/C#N)c1nc(-c2cc3ccccc3oc2=O)cs1,4.7%
12,COc1ccc(Cl)cc1C(=O)Nc1ccccc1F,-5.7%
13,CC(C)(C)C1CCC2(CC1)NNC(=S)NN2,13.2%
14,O=C(Nc1ccc(I)cc1Cl)c1ccc2ccccc2c1,3.4%
15,CCCc1cc(=O)oc2cc(OC(C)C(C)=O)ccc12 (stereo not drawn),-0.7%
16,c1coc(CN2CCN(Cc3cccc4ccccc34)CC2)c1,-4.4%
17,COc1ccc2oc(=O)c(C(=O)Nc3cccc(Cl)c3)cc2c1,16.4%
18,Cc1ccc(C(=O)NC(NC(=S)Nc2ccccc2)C(Cl)(Cl)Cl)cc1 (stereo not drawn),10.8%
19,CCc1nccn1S(=O)(=O)c1cc(Cl)ccc1Br,9.1%
20,CCOC(=O)c1cnc2cc(OC)ccc2c1Cl,-4.4%
21,Cc1cn(S(=O)(=O)c2ccc(Br)cc2)cn1,7.7%
22,COc1ccc(OC)c(NC(=O)CN(c2ccc(C)cc2)S(=O)(=O)c2ccc(F)cc2)c1,-4.9%
23,O=C(CCc1ccccc1)NCCOc1ccccc1,12.8%

row,SMILES,displacement
1,COc1ccccc1N1CCN(C2CC(=O)N(c3ccc(F)cc3)C2=O)CC1 (stereo not drawn),-7.9%
2,CCOc1ccc(C(=O)Nc2ccc3nn(-c4ccc(OC)cc4)nc3c2)cc1Cl,10.5%
3,Cc1cc2nc(-c3ccc(C)c(NC(=O)/C=C/c4ccco4)c3)oc2cc1C,-5.3%
4,O=C1C(Nc2ccccc2)=CC(c2ccc(Cl)cc2)N1c1ccccc1 (stereo not drawn),-32%
5,O=C(NC1C2CC3CC(C2)CC1C3)c1ccccc1F (stereo not drawn),4.9%
6,O=c1/c(=C\c2cc(Cl)c(O)c(Cl)c2)sc2nc3ccccc3n12,12.6%
7,Cn1ccnc1SCC(=O)c1ccc(-c2ccccc2)cc1,-0.3%
8,COc1cccc(C2CC(=O)Nc3c2ccc2ccccc32)c1OC (stereo not drawn),-3.3%
9,O=C(COc1ccccc1Cl)NNC(=O)c1ccccn1,-13%
10,Cc1ccccc1N=C(NOCc1ccccc1)c1nonc1N,15%
11,O=c1nc(/C=C/c2ccc(-c3ccc([N+](=O)[O-])cc3Cl)o2)cc(C(F)(F)F)[nH]1,11.9%
12,COC(=O)c1coc(-c2ccc(OC)cc2)c1C(=O)OC,-3.9%
13,O=C(c1ccc([N+](=O)[O-])cc1)N1CCSC1c1ccccc1Cl (stereo not drawn),-0.9%
14,COC(=O)C1=C(C)N=c2s/c(=C\c3ccc4c(c3)OCO4)c(=O)n2C1/C=C/c1ccccc1 (stereo not drawn),27.3%
15,CCOC(=O)c1sc(NC(=O)c2nn3c(c2Cl)NC(c2cccs2)CC3C(F)(F)F)c(C(=O)OCC)c1C (stereo not drawn),8.1%
16,O=C(COc1ccc(Cl)cc1)Nc1ccc(Cl)cc1,15%
17,COC(=O)C1=C(C)NC2=C(C(=O)c3ccccc32)C1c1cc(OC)c(OC)c(OC)c1 (stereo not drawn),2.8%
18,COc1ccc(C)cc1NC(=O)C1C2C=CC(O2)C1C(=O)O (stereo not drawn),2.3%
19,COC(=O)c1ccc(C2Nc3ccccc3NC3=C2C(=O)CC(C)(C)C3)cc1 (stereo not drawn),0.6%
20,Cc1c(F)cccc1NC(=O)C(Cc1c[nH]c2ccccc12)NC(=O)OCC(C)C (stereo not drawn),2.2%
21,COCCNCCOc1c(Cl)cccc1Cl,-10.6%
22,O=C(Nc1ccc(F)c([N+](=O)[O-])c1)c1cnccn1,-5.1%
23,COc1ccc2oc(C(Cl)(Cl)Cl)cc(=O)c2c1,14.1%

row,SMILES,displacement
1,c1ccc(Oc2cccc(CN3CCN(Cc4ccccn4)CC3)c2)cc1,0.6%
2,C/C(=N/N=C1\NC(=O)C(C)S1)c1ccc(Cl)cc1 (stereo not drawn),13.1%
3,COc1ccc(N2C(=O)/C(=C/c3ccc(Br)o3)SC2=S)cc1,17.5%
4,Cc1ccc2oc(C(=O)Nc3ccc(F)cc3)c(C)c2c1,-5.8%
5,CCOc1cc(OCC)cc(C(=O)Nc2c(C)cccc2C)c1,10%
6,Cc1ccc(C(=O)Nc2ccccc2C(=O)N2CCCCC2C)cc1 (stereo not drawn),-9.4%
7,C=CCn1nc(C)c(Cc2c(C)nn(CC=C)c2C)c1C,-4.4%
8,O=C1CCCC2=C1C(c1ccc(OCc3ccccc3)cc1)Nc1ccc3ncccc3c12 (stereo not drawn),3.4%
9,CCOc1ccc2nc(NC(=O)c3ccccc3C(=O)O)sc2c1,-7%
10,O=C(COC(=O)C1CCCN1C(=O)Oc1ccccc1)c1ccccc1 (stereo not drawn),-8.4%
11,CN=C(Nc1ccccc1OC)SC1CC(=O)N(c2ccc(C(=O)OC)cc2)C1=O (stereo not drawn),-7.4%
12,NC(=O)c1ccc(NC(=O)C23CC4CC(CC(C4)C2)C3)cc1,-2.3%
13,Cc1ccsc1/C=C1\SC(N2CCN(C)CC2)=NC1=O,3%
14,Cc1ccc2ncnc(Nc3ccc(I)cc3)c2c1,13.4%
15,CCOc1cc(/C=N/n2cnnc2)cc(Br)c1OCCOc1ccc(C(C)CC)cc1 (stereo not drawn),-1.3%
16,O=C(O)c1ccc(-c2cc(Cl)ccc2Cl)o1,-8.3%
17,Cc1cc(NC(=O)c2ccc(Br)o2)no1,1.6%
18,Cc1cc(N2CCN(c3ccccc3)CC2)nc(-c2ccccc2O)n1,34.8%
19,CCCCN(CCCC)S(=O)(=O)c1ccc(C)cc1,-6.8%
20,COc1ccc(CC(=O)NNC(=O)c2cccc(Cl)c2)cc1OC,-3.1%
21,CC(=O)Nc1ccc(Nc2nc3ccccc3nc2Nc2ccc(NC(C)=O)cc2)cc1,-13.4%
22,O=C(NCc1ccccc1)C(=O)Nc1cccc2ccccc12,13.5%
23,C/C(=N/O)C(O)C12CC3CC(CC(C3)C1)C2 (stereo not drawn),16.6%

row,SMILES,displacement
1,O=C(O)c1cccc(N2C(=O)CC(Nc3ccc(N4CCOCC4)cc3)C2=O)c1 (stereo not drawn),47.9%
2,O=C(O)COc1ccccc1C=C1C(=O)NC(=O)N(c2ccccc2F)C1=O,4.3%
3,COC(=O)C(=Cc1cc(Br)c(OCc2ccc([N+](=O)[O-])cc2)c(OC)c1)C(=O)OC,13.2%
4,CC(=O)Nc1nnc(-c2ccccc2)o1,-1.2%
5,COc1ccc(Br)cc1/C=C/C(=O)Nc1cccc(NC(=O)c2ccccc2Cl)c1,-7.7%
6,CCSc1nnc(NC(=O)C(CC)c2ccccc2)s1 (stereo not drawn),3.9%
7,COC(=O)c1c(/N=C/N(C)C)ncn1-c1ccccc1OC,-4.7%
8,Cc1cc(C)cc(NC(=O)C(=O)NCC(C)C)c1,5.1%
9,Cc1cc(C)n(S(=O)(=O)c2ccccc2[N+](=O)[O-])n1,11%
10,CC1=Nc2ccccc2/C1=C\c1sc(=S)n(-c2ccccc2)c1O,104%
11,O=C1C(=O)N(c2ccccc2)C(c2ccc(O)cc2)/C1=C(\O)c1ccc(Br)cc1 (stereo not drawn),7.7%
12,CCOC(=O)Nc1sc(C)nc1-c1ccccc1,17%
13,O=C(c1cc(Cl)ccc1Cl)N1CCCCC1,4.2%
14,O=c1c2ccccc2nc(-c2ccco2)n1-c1cccc2ccccc12,12.4%
15,CN1C(=O)C(c2c[nH]c3ccccc23)(c2c[nH]c3ccccc23)c2ccccc21,8%
16,O=C(Nc1ccc(C23CC4CC(CC(C4)C2)C3)cc1)c1ccccc1Cl,16.4%
17,Cc1ccc(N2CC(C(=O)N3CCCCC3)CC2=O)cc1 (stereo not drawn),-43.3%
18,CC(=O)Oc1ccc(C(=O)Nc2cccc(C(=O)O)c2)cc1,7.7%
19,COc1cc(/C=C2\SC(=S)NC2=O)cc(Br)c1OC(C)=O,1.6%
20,CCN1C(=N)N(c2nc(N(C)C)nc(N(C)C)n2)CC1=O,15%
21,Cc1cccc(C(=O)N/N=C/c2ccc(OC3CSC3)cc2)c1,2.5%
22,Cc1cc(C)c(/C=N/O)c(C)c1/C=N/O,5.3%
23,O=C(/C=C/c1ccc(O)cc1)c1ccc(NC2=C(N3CCCCC3)C(=O)c3ccccc3C2=O)cc1,13.5%

row,SMILES,displacement
1,Cc1ccccc1C(=O)Nc1ccc(-c2nc3ccccc3[nH]2)cc1,-3.8%
2,COc1cccc(-n2c(C=C3C(=O)Nc4ccc(Br)cc43)nc3ccccc3c2=O)c1,1.8%
3,O=S(=O)(NCCN1CCOCC1)c1cc(Cl)ccc1Cl,-12.2%
4,Cc1nnc(NC(=O)/C=C/c2ccc(F)cc2)s1,-11.3%
5,O=S(=O)(Nc1ccc(O)c(Br)c1)c1ccc(F)cc1,15.9%
6,O=c1c2c3c(sc2[nH]c(=S)n1-c1ccccc1)-c1ccccc1CC3,102%
7,CCNC(=O)/C(C#N)=C/c1ccc(O)c(OCC)c1,-10.7%
8,Cc1cc(C)nc(NS(=O)(=O)c2ccc(NC(=O)CSc3nnnn3-c3ccccc3)cc2)n1,6.5%
9,C=CCN1C(=O)/C(=C\c2cccc(OS(=O)(=O)c3ccc(C)cc3)c2)SC1=S,-1.3%
10,CCOC(=O)/C=C/c1cc(C(=O)OCC)c(/C=C/C(=O)OCC)cc1C(=O)OCC,-11.4%
11,CC(C)NC(=O)C(=O)Nc1ccc(Cl)c(Cl)c1,6.1%
12,Cc1cc(C)n(C(=O)CCC(=O)Nc2cccc(Cl)c2C)n1,-3.9%
13,COc1ccc(CNC(=O)CN(c2cccc3ccccc23)S(C)(=O)=O)cc1,-7.1%
14,CCC(C)OC(=O)c1cccc(-c2ccc(OC(C)=O)cc2)c1 (stereo not drawn),10.4%
15,CC1(C)CC(NC(=O)COc2ccccc2Cl)CC(C)(C)N1,-6.7%
16,COc1cc(/C=N/N2CCN(Cc3cccc4ccccc34)CC2)cc(OC)c1O,14.6%
17,O=C(O)/C=C\C(=O)Nc1ccccc1SC(F)(F)F,9.3%
18,CC(=O)Nc1nc(O)c(/C=C2/C(C)=Nc3ccccc32)s1,-45.5%
19,Cc1ccccc1C(=O)Nc1cccc(NC(=O)COc2ccccc2Cl)c1,11.6%
20,CCOc1cccc(C(=O)Nc2sc(C)c(-c3ccc(C)cc3)c2C(=O)OC)c1,-7%
21,Cc1cc(C)c(NC(=O)C(=O)NCC(C)O)c(C)c1 (stereo not drawn),1.9%

# — PubChem BioAssay AID1240 (Sanford-Burnham Center for Chemical Genomics, 2008)
